# Laboratory results: US20260193238A1, “PHARMACEUTICAL COMPOUNDS AS PARP7 AND/OR PARP1 INHIBITORS” (Duke Street Bio Limited, priority 2022, published 2026)
# Target: T1, PARP7 (amino acids 456-657) (Homo sapiens, UniProt Q7Z3E1)
# T1 sequence (Q7Z3E1 456-657): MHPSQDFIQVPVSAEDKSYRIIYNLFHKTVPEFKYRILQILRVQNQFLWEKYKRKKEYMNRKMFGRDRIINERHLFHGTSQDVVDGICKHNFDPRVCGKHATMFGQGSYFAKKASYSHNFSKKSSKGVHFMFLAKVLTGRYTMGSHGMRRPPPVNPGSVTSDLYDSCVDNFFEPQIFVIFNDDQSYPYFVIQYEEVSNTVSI
# Assay: PARP7 biochemical DELFIA assay (auto-MARylation)
# Conditions: Table 1A
row,IC50 [nM],SMILES
1,1000 to 10000,"CNC(=O)c1ccc(N2CCN(C(=O)CN3CCCC3c3cc(C(F)(F)F)c(=O)[nH]n3)CC2)nc1 (single isomer, unassigned) [Compound 55a]"
2,≤ 10,"CNC(=O)c1ccc(N2CCN(C(=O)CN3CCCC3c3cc(C(F)(F)F)c(=O)[nH]n3)CC2)nc1 (single isomer, unassigned) [Compound 55b]"
3,1000 to 10000,"CNC(=O)c1ccc(N2CCN(C(=O)CCN3CCC3c3cc(C(F)(F)F)c(=O)[nH]n3)CC2)cn1 (single isomer, unassigned) [Compound 56b]"
4,100 to 1000,"CCc1cc(C2CCCN2CC(=O)N2CCN(c3ncc(C(F)(F)F)cn3)CC2)c[nH]c1=O (single isomer, unassigned) [Compound 57b]"
5,≤ 10,"O=C(CN1CCCC1c1c[nH]c(=O)c(C(F)(F)F)c1)N1CCN(c2ncc(C(F)(F)F)cn2)CC1 (single isomer, unassigned) [Compound 60a, 5-(1-(2-oxo-2-(4-(5-(trifluoromethyl)pyrimidin-2-yl)piperazin-1-yl)ethyl)pyrrolidin-2-yl)-3-(trifluoromethyl)pyridin-2(1H)-one]"
6,10 to 100,"O=C(CN1CCCC1c1c[nH]c(=O)c(C(F)(F)F)c1)N1CCN(c2ncc(C(F)(F)F)cn2)CC1 (single isomer, unassigned) [Compound 60b, 5-(1-(2-oxo-2-(4-(5-(trifluoromethyl)pyrimidin-2-yl)piperazin-1-yl)ethyl)pyrrolidin-2-yl)-3-(trifluoromethyl)pyridin-2(1H)-one]"
7,10 to 100,"O=C(CN1CCN(c2ncc(C(F)(F)F)cn2)CC1)N1CCCC1c1c[nH]c(=O)c(C(F)(F)F)c1 (single isomer, unassigned) [Compound 63a]"
8,100 to 1000,"O=C(CN1CCCCC1c1cc(C(F)(F)F)c(=O)[nH]n1)N1CCN(c2ncc(C(F)(F)F)cn2)CC1 (single isomer, unassigned) [Compound 66a]"
9,1000 to 10000,"O=C(CN1CCCCC1c1cc(C(F)(F)F)c(=O)[nH]n1)N1CCN(c2ncc(C(F)(F)F)cn2)CC1 (single isomer, unassigned) [Compound 66b]"
10,≤ 10,"O=C(CN1CCCC1c1cc(C(F)(F)F)c(=O)[nH]n1)N1CCN(c2ncc(C3CC3)cn2)CC1 (single isomer, unassigned) [Compound 69a]"
11,1000 to 10000,"O=C(CN1CCCC1c1cc(C(F)(F)F)c(=O)[nH]n1)N1CCN(c2ncc(C3CC3)cn2)CC1 (single isomer, unassigned) [Compound 69b]"
12,10 to 100,"O=C(CN1CCCC1c1cc(C(F)(F)F)c(=O)[nH]n1)N1CCC(c2ncc(C(F)(F)F)cn2)CC1 (single isomer, unassigned) [Compound 70a]"
13,10 to 100,"N#Cc1ccc(N2CCN(C(=O)CN3CCCC3c3cc(C(F)(F)F)c(=O)[nH]n3)CC2)cc1 (single isomer, unassigned) [Compound 71b]"
14,≤ 10,"O=C(CN1CCCC1c1cc(C(F)(F)F)c(=O)[nH]n1)N1CCN(c2ncc(OC(F)(F)F)cn2)CC1 (single isomer, unassigned) [Compound 72b]"
15,1000 to 10000,"CNC(=O)c1ccc(N2CCN(C(=O)CCN3CCCC3c3c[nH]c(=O)c(C(F)(F)F)c3)CC2)cn1 (single isomer, unassigned) [Compound 73b]"
16,≤ 10,"O=C(CN1CCCC1c1c[nH]c(=O)c(C(F)(F)F)c1)N1CCN(c2ncc(Cl)cn2)CC1 (single isomer, unassigned) [Compound 74a]"
17,100 to 1000,"O=C(CN1CCCC1c1c[nH]c(=O)c(C(F)(F)F)c1)N1CCN(c2ncc(Cl)cn2)CC1 (single isomer, unassigned) [Compound 74b]"
18,≤ 10,"O=C(CN1CCCC1c1cc(C(F)(F)F)c(=O)[nH]n1)C1CCN(c2ncc(C(F)(F)F)cn2)CC1 (single isomer, unassigned) [Compound 75a]"
19,1000 to 10000,"O=C(CN1CCCC1c1cc(C(F)(F)F)c(=O)[nH]n1)C1CCN(c2ncc(C(F)(F)F)cn2)CC1 (single isomer, unassigned) [Compound 75b]"
20,100 to 1000,"N#Cc1cnc(N2CCN(C(=O)CN3CCCC3c3c[nH]c(=O)c(C(F)(F)F)c3)CC2)nc1 (single isomer, unassigned) [Compound 76a]"
21,≤ 10,"N#Cc1cnc(N2CCN(C(=O)CN3CCCC3c3c[nH]c(=O)c(C(F)(F)F)c3)CC2)nc1 (single isomer, unassigned) [Compound 76b]"
22,100 to 1000,"N#Cc1ccc(N2CCN(C(=O)CN3CCCC3c3c[nH]c(=O)c(C(F)(F)F)c3)CC2)nc1 (single isomer, unassigned) [Compound 77a]"
23,≤ 10,"N#Cc1ccc(N2CCN(C(=O)CN3CCCC3c3c[nH]c(=O)c(C(F)(F)F)c3)CC2)nc1 (single isomer, unassigned) [Compound 77b]"
24,≤ 10,"O=C(CN1CCCC1c1c[nH]c(=O)c(Cl)c1)N1CCN(c2ncc(C(F)(F)F)cn2)CC1 (single isomer, unassigned) [Compound 78a, 3-chloro-5-(1-(2-oxo-2-(4-(5-(trifluoromethyl)pyrimidin-2-yl)piperazin-1-yl)ethyl)pyrrolidin-2-yl)pyridin-2(1H)-one]"

row,IC50 [nM],SMILES
1,100 to 1000,"O=C(CN1CCCC1c1c[nH]c(=O)c(Cl)c1)N1CCN(c2ncc(C(F)(F)F)cn2)CC1 (single isomer, unassigned) [Compound 78b, 3-chloro-5-(1-(2-oxo-2-(4-(5-(trifluoromethyl)pyrimidin-2-yl)piperazin-1-yl)ethyl)pyrrolidin-2-yl)pyridin-2(1H)-one]"
2,≤ 10,"O=C(CN1CCCC1c1cc(C(F)(F)F)c(=O)[nH]n1)N1CCN(c2ccc(C3CC3)cn2)CC1 (single isomer, unassigned) [Compound 79a]"
3,≤ 10,"O=C(CN1CCCC1c1cc(C(F)(F)F)c(=O)[nH]n1)N1CCN(c2cc(Cl)c(F)cn2)CC1 (single isomer, unassigned) [Compound 80b]"
4,≤ 10,"O=C(CN1CCCC1c1cc(C(F)(F)F)c(=O)[nH]n1)N1CCN(c2ccc(OC(F)(F)F)cn2)CC1 (single isomer, unassigned) [Compound 81b]"
5,≤ 10,"CC(C)(C)c1cnc(N2CCN(C(=O)CN3CCCC3c3cc(C(F)(F)F)c(=O)[nH]n3)CC2)nc1 (single isomer, unassigned) [Compound 82a]"
6,100 to 1000,"CC(C)(C)c1cnc(N2CCN(C(=O)CN3CCCC3c3cc(C(F)(F)F)c(=O)[nH]n3)CC2)nc1 (single isomer, unassigned) [Compound 82b]"
7,≤ 10,"O=C(CN1CCCC1c1cc(C(F)(F)F)c(=O)[nH]n1)N1CCN(c2ncc(F)cc2F)CC1 (single isomer, unassigned) [Compound 83a]"
8,100 to 1000,"O=C(CN1CCCC1c1cc(C(F)(F)F)c(=O)[nH]n1)N1CCN(c2ncc(F)cc2F)CC1 (single isomer, unassigned) [Compound 83b]"
9,10 to 100,"O=C(CN1CCCC1c1c[nH]c(=O)c(C(F)(F)F)n1)N1CCN(c2ncc(C(F)(F)F)cn2)CC1 (single isomer, unassigned) [Compound 84a, 5-(1-(2-oxo-2-(4-(5-(trifluoromethyl)pyrimidin-2-yl)piperazin-1-yl)ethyl)pyrrolidin-2-yl)-3-(trifluoromethyl)pyrazin-2(1H)-one]"
10,100 to 1000,"O=C(CN1CCCC1c1c[nH]c(=O)c(C(F)(F)F)n1)N1CCN(c2ncc(C(F)(F)F)cn2)CC1 (single isomer, unassigned) [Compound 84b, 5-(1-(2-oxo-2-(4-(5-(trifluoromethyl)pyrimidin-2-yl)piperazin-1-yl)ethyl)pyrrolidin-2-yl)-3-(trifluoromethyl)pyrazin-2(1H)-one]"
11,≤ 10,"O=C(CN1CCCC1c1cc(C(F)(F)F)c(=O)[nH]n1)N1CCN(c2nc3ccc(Cl)cc3o2)CC1 (single isomer, unassigned) [Compound 85a]"
12,100 to 1000,"O=C(CN1CCCC1c1cc(C(F)(F)F)c(=O)[nH]n1)N1CCN(c2nc3ccc(Cl)cc3o2)CC1 (single isomer, unassigned) [Compound 85b]"
13,1000 to 10000,"CC1(C)CC(c2cc(C(F)(F)F)c(=O)[nH]n2)CN(CCC(=O)N2CCN(c3ncc(C(F)(F)F)cn3)CC2)C1 (single isomer, unassigned) [Compound 87a]"
14,10 to 100,"CC1(C)CC(c2cc(C(F)(F)F)c(=O)[nH]n2)CN(CCC(=O)N2CCN(c3ncc(C(F)(F)F)cn3)CC2)C1 (single isomer, unassigned) [Compound 87b]"
15,100 to 1000,"O=C(CN1CCOCC1c1cc(C(F)(F)F)c(=O)[nH]n1)N1CCN(c2ncc(C(F)(F)F)cn2)CC1 (single isomer, unassigned) [Compound 88a]"
16,1000 to 10000,"CNC(=O)c1ccc(N2CCN(C(=O)CN3CCOCC3c3cc(C(F)(F)F)c(=O)[nH]n3)CC2)cn1 (single isomer, unassigned) [Compound 90b]"
17,100 to 1000,"O=C(CN1CCCC1c1cc(C(F)(F)F)c(=O)[nH]n1)N1CCN(c2nc3cc(F)ccc3o2)CC1 (single isomer, unassigned) [Compound 93b]"
18,1000 to 10000,"CC1(C)CC(c2cc(C(F)(F)F)c(=O)[nH]n2)N(CC(=O)N2CCN(c3ncc(C(F)(F)F)cn3)CC2)C1 (single isomer, unassigned) [Compound 94b]"
19,100 to 1000,"O=C(CN1CCCC1c1cc(C(F)(F)F)c(=O)[nH]n1)N1CCN(c2nc3ccc(F)cc3o2)CC1 (single isomer, unassigned) [Compound 95b]"
20,100 to 1000,"N#Cc1ccc2nc(N3CCN(C(=O)CN4CCCC4c4cc(C(F)(F)F)c(=O)[nH]n4)CC3)oc2c1 (single isomer, unassigned) [Compound 96a]"
21,≤ 10,"N#Cc1ccc2nc(N3CCN(C(=O)CN4CCCC4c4cc(C(F)(F)F)c(=O)[nH]n4)CC3)oc2c1 (single isomer, unassigned) [Compound 96b]"
22,≤ 10,"Cn1c(N2CCN(C(=O)CN3CCCC3c3cc(C(F)(F)F)c(=O)[nH]n3)CC2)nc2ccccc21 (single isomer, unassigned) [Compound 97a]"
23,100 to 1000,"Cn1c(N2CCN(C(=O)CN3CCCC3c3cc(C(F)(F)F)c(=O)[nH]n3)CC2)nc2ccccc21 (single isomer, unassigned) [Compound 97b]"
